± gives the standard deviation of the averaged measurements. This is one part of the list.

Consider 45 sequences from the supplement of paper PMC11417369.

For this test, the system named is PfAP2-LT AP2 domain (GST-tagged). The experiment in a line: gcPBM binding intensity (ln(normalized median fluorescence intensity)); higher = stronger DNA binding. Summed up:
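In this array assay, P. falciparum DNA-binding domains with a GST tag, expressed in E. coli, were applied for 1 h to primer-extended double-stranded 36-bp intergenic genomic probes and negative controls on an Agilent 4 × 180k array. Bound protein was visualised with Alexa488 anti-GST antibody at 488 nm. Binding intensity is the highest Masliner-normalised natural-log median intensity across replicate spots of either probe orientation.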
Regarding “ATTATATATACACGCACACACACTTATATATATATA [CACACA_site9093]”, the “gcPBM binding intensity (ln)” value was 9.81 ± 0.26.

On to “CATTCATTTATTAATTGTACTTTTAAGGTTAAATAA [XGTACX_site5838]”, for which the “gcPBM binding intensity (ln)” value came out at 8.27 ± 0.4.

As to “TAAAAATATATACATACATGCATACATATATATGTA [TGCATGCA_site774]”, the “gcPBM binding intensity (ln)” value is 8.65 ± 0.34.

In the case of “CAAGCCCTTCTGCTTACACACAGTAATTATTGTGTA [CACACA_site2953]”, the “gcPBM binding intensity (ln)” value was found to be 9.19 ± 0.35.

For “TTTTTAACATATCATACACACAACAACTTTTTATAG [CACACA_site1962]”, the “gcPBM binding intensity (ln)” value is 8.79 ± 0.36.

Turning to “AAAAAAAAAAATATAACACACAAAAAATTGTATCGA [CACACA_site1144]”, the “gcPBM binding intensity (ln)” value stood at 8.73 ± 0.51.

In the case of “ATATAGTAAAATTATACACACATGAATTTTCCCATA [CACACA_site3113]”, the “gcPBM binding intensity (ln)” value was determined as 8.96 ± 0.43.

For “ACAAAATTTACAAAATGTACATATTGTAGATATTGT [XGTACX_site7618]”, the “gcPBM binding intensity (ln)” value was 8.73 ± 0.4.

Turning to “CCATTAAATACATACACACCCACACCCAAAAAAAAA [CACACA_site4633]”, the “gcPBM binding intensity (ln)” value is 9.85 ± 0.14.

Regarding “TATAAATAAAGACACACACACATATAAATAAATATA [CACACA_site7155]”, the “gcPBM binding intensity (ln)” value came to 9.68 ± 0.26.

On to “TTTATATACTATTCAAAGTGATAAATAATATATGAA [TGCATGCA_negctrl_site352]”, for which the “gcPBM binding intensity (ln)” value amounted to 8.42 ± 0.44.

On to “AAAAAAAAAAAACATACACACAATAAAATAGGGGTA [CACACA_site2399]”, for which the “gcPBM binding intensity (ln)” value turned out to be 9.22 ± 0.4.

With “ATTTATTTATTAAGATGTACTTATTAAAAATAATAA [XGTACX_site7392]”, the “gcPBM binding intensity (ln)” value was 8.16 ± 0.42.

In the case of “ATTTATTCATTTGGGTGTACTATTTAAAAAAAACAA [XGTACX_site498]”, the “gcPBM binding intensity (ln)” value stood at 8.43 ± 0.36.

Turning to “TATTTATATTTTAACACACACATATTTATATTTATA [CACACA_site7324]”, the “gcPBM binding intensity (ln)” value is 8.99 ± 0.47.

Consider “TATATTTTTTAAACCACACACAATATAGAGTATAAT [CACACA_site4510]”, for which the “gcPBM binding intensity (ln)” value was 8.98 ± 0.4.

For “TATATATAATTTTATACATGCACATATTATATATAT [TGCATGCA_site1036]”, the “gcPBM binding intensity (ln)” value amounted to 8.85 ± 0.42.

Turning to “TAAACATTTTTGCACGCACACAAAAAAAAAATAAAA [CACACA_site167]”, the “gcPBM binding intensity (ln)” value worked out at 9.12 ± 0.59.

On to “ATTAAATGCAGTTCGGTGCATTAAGGTTATGATGAA [GTGCAC_site9883]”, for which the “gcPBM binding intensity (ln)” value was determined as 8.67 ± 0.48.

As for “CACATACAGACATACACACACATATAGATTAATATA [CACACA_site6399]”, the “gcPBM binding intensity (ln)” value was 9.57 ± 0.31.

“AATAAGAAATGTAAATGTACATAAAAAAAAGTATAT [XGTACX_site3573]”: the “gcPBM binding intensity (ln)” value worked out at 9.03 ± 0.49.

Consider “TATATATATATATTATGTACATATATATTAAATATG [XGTACX_site2494]”, for which the “gcPBM binding intensity (ln)” value came to 8.81 ± 0.3.

With “TTAGGGTTTTATAAATGTACTTATTTATACATCCTC [XGTACX_site5769]”, the “gcPBM binding intensity (ln)” value stood at 8.79 ± 0.45.

Consider “ATAATATTTTGAAACGGTACACTTTTAAAATACACT [XGTACX_site4423]”, for which the “gcPBM binding intensity (ln)” value came to 8.63 ± 0.41.

As to “AAAATAAGGAAAAAAAAAAAAAAAAAAAAAAAAAAG [CACACA_negctrl_site1291]”, the “gcPBM binding intensity (ln)” value was found to be 8.52 ± 0.69.

With “ACAAGATGATGGAAATGTACATAAAAAGAATCATAT [XGTACX_site8682]”, the “gcPBM binding intensity (ln)” value is 9.13 ± 0.54.

Take “TTTTTTTTTATATTTAGTACATATATATTATTATAT [XGTACX_site3334]”: the “gcPBM binding intensity (ln)” value stood at 8.71 ± 0.49.

Regarding “AACACTACATAAAACTGTACAATAGTATTTTATTAT [XGTACX_site996]”, the “gcPBM binding intensity (ln)” value was found to be 8.92 ± 0.42.

Regarding “ATTATTAAAATGATATGTACGCACATAATATACATA [XGTACX_site3236]”, the “gcPBM binding intensity (ln)” value turned out to be 8.85 ± 0.33.

Take “CTTAGTGTATTTGAATGTACGCATAAATATAATTAT [XGTACX_site2830]”: the “gcPBM binding intensity (ln)” value came out at 8.68 ± 0.35.

For “TATATATTAATATATGCATGTACGATTATTATAATA [TGCATGCA_site446]”, the “gcPBM binding intensity (ln)” value worked out at 8.73 ± 0.37.

In the case of “AAAAAAAAAAAACATACACACAAATATGTACATACA [CACACA_site7807]”, the “gcPBM binding intensity (ln)” value was found to be 9.14 ± 0.47.

As to “AATAAAAATCCACAAGCACACAAATGTACTTATATA [CACACA_site8783]”, the “gcPBM binding intensity (ln)” value turned out to be 8.83 ± 0.42.

In the case of “TAAATACAAAAATGTACACACATATAAATATTTTTA [CACACA_site7612]”, the “gcPBM binding intensity (ln)” value is 8.83 ± 0.41.

Take “TTAATTAAATATTATACACACAAAAAAATAACTTTA [CACACA_site6197]”: the “gcPBM binding intensity (ln)” value was 8.62 ± 0.38.

In the case of “AAAGTGTTAACCTAATCTTTAGTTTTTAAACAATAT [CACACA_negctrl_site841]”, the “gcPBM binding intensity (ln)” value is 8.49 ± 0.41.

For “TGTATTTAAAATGGTTGTACATAAATAAAAATAAAA [XGTACX_site7771]”, the “gcPBM binding intensity (ln)” value worked out at 8.54 ± 0.49.

As for “ATTTATTTATTTATATGTACTTATATATGTATTTTC [XGTACX_site6269]”, the “gcPBM binding intensity (ln)” value stood at 9.14 ± 0.52.

Take “TATTGAAACGTATAGACACACATATGATATATATAT [CACACA_site3226]”: the “gcPBM binding intensity (ln)” value was determined as 9.01 ± 0.38.

As to “TGTTTTGTTTTTTGGGGTACATGTTTTGTATTATAT [XGTACX_site7997]”, the “gcPBM binding intensity (ln)” value was determined as 9.32 ± 0.3.

For “TATCCCTTAGAATACACACCCATATGAGTGTGAACT [CACACA_site7398]”, the “gcPBM binding intensity (ln)” value turned out to be 8.92 ± 0.31.

In the case of “ATATCTTATGTTATCACACACACACGCACAAAACAG [CACACA_site6800]”, the “gcPBM binding intensity (ln)” value amounted to 9.69 ± 0.26.

Consider “TGTATTTATAAACATGCACACGTGGTTGTATTTATA [CACACA_site5762]”, for which the “gcPBM binding intensity (ln)” value is 9.09 ± 0.37.

As to “ATTTTTTTTATTTTTTATATAATTTTTTTATATTAT [CACACA_negctrl_site1521]”, the “gcPBM binding intensity (ln)” value was 8.69 ± 0.5.

With “ATTTGTTTACCTAAAAGTACAAATTTTTTATGTATA [XGTACX_site7689]”, the “gcPBM binding intensity (ln)” value was 8.48 ± 0.36.
